Data from the supplement of paper PMC11417369.
Some of the results follow.

System: PF3D7_0420300 AP2 domain 1 (GST-tagged)
Assay: gcPBM binding intensity (ln(normalized median fluorescence intensity)); higher = stronger DNA binding
Summary of the method: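 In this array assay, P. falciparum DNA-binding domains with a GST tag, expressed in E. coli, were applied for 1 h to primer-extended double-stranded 36-bp intergenic genomic probes and negative controls on an Agilent 4 × 180k array. Bound protein was visualised with Alexa488 anti-GST antibody at 488 nm. Binding intensity is the highest Masliner-normalised natural-log median intensity across replicate spots of either probe orientation.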

Sequence	gcPBM binding intensity (ln)
TATATATATATATGTATGCACTTTAATTTTATAAGG	9.08
TATATATGTATATATACACACAACGGTTATAAATAT [CACACA_site1128]	9.59
TGTTATAAGATTTATGTACACACATATACACCCCTC [CACACA_site8141]	9.56
AAGATTAGGTTAATTAGTACTTATTATATTGTAATG [XGTACX_site3653]	9.33
AAGATAAATTATTATAAATCAATTGTGCCAACAATA [CACACA_negctrl_site144]	9.09
TTTTTTTTGTGTTCAAGTACAAAATTTTAAAGGTCA [XGTACX_site4011]	8.75
TATATATATATATAAGCACACAAACAAAAAAAATTA [CACACA_site9293]	9.51
GGTTATTTCACAGAATGTACTTATTATATATAAAAT [XGTACX_site8886]	9.28
TATAAAAATATTTCTACACACATTAAAATATATATA [CACACA_site4770]	9.31
AATGAAAGGATGCTGTGTACATATATATATATATAT [XGTACX_site7901]	9.53
CATTTGCCCAGGCACACACACATAAAAAGAAAAATA [CACACA_site356]	9.73
AAGAAAATTGTCTGAAGTACAAAACATTAATAATAT [XGTACX_site4864]	9.27
AATTTAATATAATGCACACATAAAAAAAAAAAATTC [CACACA_site1504]	9.48
AGCTTGTGGATGCAGGTGCTACATTTGTTCTATAAT [GTGCAC_site9645]	9.29
CGTATATCACCAACTAGTACATATAAATAAATAAAT [XGTACX_site8837]	9.31
GTACCTATTTCATACACACACACACGCAAACAAACA [CACACA_site6590]	10.3
ATATAGATTCGACACACACACAAAAAAAAAAAAAAA [CACACA_site7677]	9.74
TGGTATATTATTTTTTGTACACATAAATGAAACATT [XGTACX_site5345]	9.19
ATATATATATATATATGTACATATTATTATTTTGAT [XGTACX_site4752]	9.13

Sequence	gcPBM binding intensity (ln)
ATATATATAATAAACACACACATATACATAGATGTA [CACACA_site5841]	9.78
ATATATATTATATGCACACTAATAAGACTATTTAAA [CACACA_site3554]	9.23
GTATATGTACTATACGCACACACACCCACATATATA [CACACA_site9062]	9.98
TTGAGTTGTATAAAAAGTACAAGGTTTTAACTAAAT [XGTACX_site1447]	9.13
TTATAATATTCATAAGGTACAGTTTATATATGTTAT [XGTACX_site8442]	9.3
AATAATCATGATCAAAGTACGTATGATTAAAAAAAA [XGTACX_site4916]	9.38
TATATGTAAATGGACACACACATATATATATATATA [CACACA_site3659]	9.4
TATGACCTTAGTAATTGTACACAAACATATTAATAT [XGTACX_site3340]	9.27
GAGTATATGATATATATATATATATAAAAAAAAAAA [GTGCAC_negctrl_site99]	9.21
ACATATATATAATATATATATCATCATATTTTCTTA [CACACA_negctrl_site853]	9.22
ATATGTGTTATTTATACATGCAGAAGAATATCTATT [TGCATGCA_site828]	9.31
TGTGTGTGTATATGTGTGCACATATAAAATAGAAGA [GTGCAC_site9714]	10.2
CATACATTTAAAAAGTGTACGTATATGAAAAAAGGA [XGTACX_site6512]	9.34
ACCTTTGTAGTTGGTCCACACACATATATGGAAGAA [CACACA_site8351]	9.52
CTCAATATTATTACTACACACAAATTAAAATTTTCC [CACACA_site4203]	9.45
AGAGAATAAATATAAAGTACATATATAAATATATAT [XGTACX_site5055]	9.33
ACATATACAAAACACACACACAACGTTTTAATAAAT [CACACA_site1979]	10.1
ATGTTATAAATCTTAATATATATATGCAAAAGAGAA [XGTACX_negctrl_site521]	9.31
GTATATAAAAATTCATGTACATATTATTATTTTTAA [XGTACX_site658]	9.13

Sequence	gcPBM binding intensity (ln)
TTGTACATCTTTTGCACACGTAATGTTATTATAATA [CACACA_site1258]	9.49
TTATAACTTTTGAGCACACACAAGCATATAAATATA [CACACA_site6933]	9.47
AAATACTGTAAAAAAGCATGCCACTAATAATAATTA [TGCATGCA_site759]	9.38
TCATTTTTTTGTTTGGTGCGACTTGAAAATTTGATT	9.17
ATAAAGATTAATTCAAGTACACATCAAATACTACAA [XGTACX_site8794]	9.36
TATATATATTTATGTACACACATCAATCATATTAAC [CACACA_site5127]	9.5
CATATACATATATGTAGTACGTGTTCTTCTATATGA [XGTACX_site8344]	9.37
TACATATACAGACACACACACACACCCCCACAAAAA [CACACA_site495]	10.3
ATTAATATGAAACGATTATAAGAAAGAAAAGAAATG [GTGCAC_negctrl_site701]	9.41
AAATTGAATTAGTTAACACACAACTTTTATTTCATA [CACACA_site2840]	9.36
GTTATATGTTATATATATATATATATATATATATAT [TGCATGCA_negctrl_site428]	8.91
AAATTAATAAGTCACACACACATATATAATATATAT [CACACA_site799]	10.1
AATATATACATTTATATACACACCTATATATATATA [CACACA_site1972]	9.45
AGCATCATTTTACACACATGCAAATGTAAAATAGGA [TGCATGCA_site460]	9.43
TTATATATAATATATACACACACATGTATATATAAA [CACACA_site8603]	9.45
ATTACATACGAGCACACGTAAAAGTATAATATAAAA [GTGCAC_negctrl_site446]	9.27
TTTGTATTGTGCAGATGTACATTATAATATTGGATT [XGTACX_site5033]	9.21
TATGTTCCATTTTTTGGTACACATACAATAACTGCT [XGTACX_site2256]	9.11
AACAAATACAAAGAATAGTCATCTGAATGGTGTTAT [GTGCAC_negctrl_site685]	9.53
